B1: GPR68, Q15743 (parent)
chain: MGNITADNSSMSCTIDHTIHQTLAPVVYVTVLVVGFPANCLSLYFGYLQIKARNELGVYLCNLTVADLFYICSLPFWLQYVLQHDNWSHGDLSCQVCGILLYENIYISVGFLCCISVDRYLAVAHPFRFHQFRTLKAAVGVSVVIWAKELLTSIYFLMHEEVIEDENQHRVCFEHYPIQAWQRAINYYRFLVGFLFPICLLLASYQGILRAVRRSHGTQKSRKDQIQRLVLSTVVIFLACFLPYHVLLLVRSVWEASCDFAKGVFNAYHFSLLLTSFNCVADPVLYCFVSETTHRDLARLRGACLAFLTCSRTGRAREAYPLGAPEASGKSGAQGEEPELLTKLHPAFQTPNSPGSGGFPTGRLA

Series [1] covers variants of B1. Briefly: cAMP reporter score (Enrich2 score, wild type = 0); higher = more signal; HEK293T, FACS bins.
Series [2] covers variants of B1. Briefly: surface expression score (Enrich2 score, wild type = 0); higher = more signal; HEK293T, FACS bins.

Our source for the cAMP reporter score and surface expression score values is the GPR68 mutational scans of Howard et al. (2025).

The least precise scores are not listed. Two further conditions of the source, in which the scores hardly spread, are not listed. Names with del lack the residues named; names with ins carry added residues between the positions named. For some assays here: The data file names ogerin without a concentration.

In the case of E160R, the cAMP reporter score amounted to 1.33 in series [1] (pH 5.5); 0.581 in series [1] (pH 6); 0.981 in series [1] (pH 6, modulator: ogerin); 0.453 in series [1] (pH 6.5, modulator: ogerin). The surface expression score in series [2] was 3.
Regarding E160W, the cAMP reporter score in series [1] (pH 5.5) is -0.819; in series [1] (pH 6), -1.23; in series [1] (pH 6, modulator: ogerin) it was -0.464; in series [1] (pH 6.5, modulator: ogerin), 0.391. The surface expression score in series [2] worked out at 1.47.
For the variant E160G, the cAMP reporter score was found to be 1.3 in series [1] (pH 5.5); 4.57 in series [1] (pH 6); 2.18 in series [1] (pH 6, modulator: ogerin); 4.33 in series [1] (pH 6.5, modulator: ogerin). In addition, the surface expression score in series [2] is -0.106.
For E160L, the cAMP reporter score in series [1] (pH 5.5) was -0.423; in series [1] (pH 6, modulator: ogerin), -0.629.
Regarding E160D, the cAMP reporter score in series [1] (pH 5.5) turned out to be 0.189; in series [1] (pH 6), 1.18; in series [1] (pH 6, modulator: ogerin) it was 0.974; in series [1] (pH 6.5, modulator: ogerin), 2.76. Besides, the surface expression score in series [2] turned out to be 0.068.
For E160A, the cAMP reporter score in series [1] (pH 5.5) was -0.398.
E160S: the cAMP reporter score in series [1] (pH 5.5) came to 0.778; in series [1] (pH 6), 3.67; in series [1] (pH 6, modulator: ogerin) it was 0.91; in series [1] (pH 6.5, modulator: ogerin) it was 2.58. The surface expression score in series [2] amounted to 1.04.
As to E160T, the cAMP reporter score is 0.598 in series [1] (pH 5.5); 0.758 in series [1] (pH 6, modulator: ogerin); 3.82 in series [1] (pH 6.5, modulator: ogerin). Moreover, the surface expression score in series [2] came out at 2.62.
E160Y: the cAMP reporter score in series [1] (pH 5.5) is -1.31; in series [1] (pH 6) it was 0.916; in series [1] (pH 6, modulator: ogerin) it was 0.176. In series [2], the surface expression score was found to be 0.697.
E160K: the cAMP reporter score in series [1] (pH 5.5) is 1.14; in series [1] (pH 6), 0.232; in series [1] (pH 6, modulator: ogerin), 1.31; in series [1] (pH 6.5, modulator: ogerin), -0.044. Also, in series [2], the surface expression score is 1.79.
For the variant R170D, the cAMP reporter score in series [1] (pH 5.5) is -2.85; in series [1] (pH 6), -1.73; in series [1] (pH 6.5, modulator: ogerin), -0.668. Moreover, the surface expression score in series [2] is -0.34.
With R170P, the cAMP reporter score in series [1] (pH 5.5) was -1.74; in series [1] (pH 6) it was -0.693; in series [1] (pH 6, modulator: ogerin), -1.53; in series [1] (pH 6.5, modulator: ogerin), -1.14. Also, the surface expression score in series [2] stood at 0.389.
Regarding R170A, the cAMP reporter score in series [1] (pH 5.5) is -0.87; in series [1] (pH 6.5, modulator: ogerin), -2.07. Further, in series [2], the surface expression score came to 0.264.
For the variant R170M, the cAMP reporter score in series [1] (pH 5.5) is -0.544; in series [1] (pH 6) it was -0.459; in series [1] (pH 6, modulator: ogerin) it was -0.671; in series [1] (pH 6.5, modulator: ogerin), -0.464. In addition, the surface expression score in series [2] was -1.08.
Regarding R170I, the cAMP reporter score is -0.858 in series [1] (pH 5.5); -0.804 in series [1] (pH 6); -0.743 in series [1] (pH 6, modulator: ogerin); -1.06 in series [1] (pH 6.5, modulator: ogerin). The surface expression score in series [2] was -0.424.
On to R170C, for which the cAMP reporter score in series [1] (pH 5.5) is -2.03; in series [1] (pH 6, modulator: ogerin) it was -0.677; in series [1] (pH 6.5, modulator: ogerin), -0.437. Besides, the surface expression score in series [2] worked out at 1.53.
For the variant R170G, the cAMP reporter score in series [1] (pH 5.5) was -1.68; in series [1] (pH 6) it was -0.614; in series [1] (pH 6, modulator: ogerin) it was -1.45; in series [1] (pH 6.5, modulator: ogerin) it was -0.996. In series [2], the surface expression score is -0.144.
With R170H, the cAMP reporter score is 0.223 in series [1] (pH 5.5); -0.556 in series [1] (pH 6); -0.37 in series [1] (pH 6, modulator: ogerin); -1.44 in series [1] (pH 6.5, modulator: ogerin). Also, the surface expression score in series [2] was 0.377.
As for R170Y, the cAMP reporter score is -0.092 in series [1] (pH 5.5); -1.6 in series [1] (pH 6); -0.862 in series [1] (pH 6, modulator: ogerin); -1.29 in series [1] (pH 6.5, modulator: ogerin). Besides, in series [2], the surface expression score amounted to 0.212.
As for R170W, the cAMP reporter score was -0.404 in series [1] (pH 5.5); -0.408 in series [1] (pH 6); -1.18 in series [1] (pH 6, modulator: ogerin); -1.96 in series [1] (pH 6.5, modulator: ogerin). The surface expression score in series [2] came to 0.082.
On the same counts, the results for R170N are -0.163, -0.446, 0.261, -1.21 and 0.042.
For R170K, the cAMP reporter score is -0.795 in series [1] (pH 5.5); -0.946 in series [1] (pH 6); -0.807 in series [1] (pH 6, modulator: ogerin); -1.11 in series [1] (pH 6.5, modulator: ogerin). Moreover, the surface expression score in series [2] is -0.983.
On to R170V, for which the cAMP reporter score in series [1] (pH 5.5) was 0.336; in series [1] (pH 6, modulator: ogerin), 0.022; in series [1] (pH 6.5, modulator: ogerin), -1.25. In addition, in series [2], the surface expression score came out at 0.127.
Take R170L: the cAMP reporter score was 0.236 in series [1] (pH 5.5); -0.572 in series [1] (pH 6); -0.369 in series [1] (pH 6, modulator: ogerin); 0.014 in series [1] (pH 6.5, modulator: ogerin). Also, in series [2], the surface expression score was determined as 1.14.
Take R170Q: the cAMP reporter score in series [1] (pH 5.5) is -0.969; in series [1] (pH 6), -1.92; in series [1] (pH 6, modulator: ogerin) it was -1.04; in series [1] (pH 6.5, modulator: ogerin), -1.15. Further, in series [2], the surface expression score worked out at 0.965.
On to R170E, for which the cAMP reporter score in series [1] (pH 5.5) is -1.13; in series [1] (pH 6) it was -1.12; in series [1] (pH 6.5, modulator: ogerin), 0.295. Besides, in series [2], the surface expression score was 0.107.
Regarding R170S, the cAMP reporter score in series [1] (pH 5.5) is -1.29; in series [1] (pH 6), -1.41; in series [1] (pH 6, modulator: ogerin) it was -2.1; in series [1] (pH 6.5, modulator: ogerin) it was -1.31. Also, the surface expression score in series [2] was -0.213.
On the same counts, the results for R170F are -1.24, -2.01, -0.205, -0.733 and -0.765.
On the same counts, the results for C172del are -1.22, -0.588, -1.55, -1.45 and -1.58.
On to D165_E166insGS, for which the cAMP reporter score in series [1] (pH 5.5) was -1.09; in series [1] (pH 6), -1.49; in series [1] (pH 6, modulator: ogerin), -1.19; in series [1] (pH 6.5, modulator: ogerin) it was -0.987. Also, in series [2], the surface expression score was 0.118.
Regarding C172_E174del, the cAMP reporter score in series [1] (pH 5.5) was -1.3; in series [1] (pH 6), 0.135; in series [1] (pH 6, modulator: ogerin) it was -1.31; in series [1] (pH 6.5, modulator: ogerin), -0.8. Further, the surface expression score in series [2] was -1.17.
Regarding C172_F173del, the cAMP reporter score was -2.64 in series [1] (pH 5.5); -0.467 in series [1] (pH 6); -1.92 in series [1] (pH 6, modulator: ogerin); -0.229 in series [1] (pH 6.5, modulator: ogerin). Besides, in series [2], the surface expression score was -2.17.
For E164Y, the cAMP reporter score in series [1] (pH 5.5) is -0.383; in series [1] (pH 6), 1.31; in series [1] (pH 6, modulator: ogerin) it was 1.09; in series [1] (pH 6.5, modulator: ogerin) it was 1.39.
